Assay results reported in the supplement of paper PMC12217912.
Some of the results follow. Sequences were assembled here from the parent chain. Inactive controls read about 0.05.

B1: TEV protease; numbered along this chain (parent)
chain: MGESLFKGPRDYNPISSSICHLTNESDGHTTSLYGIGFGPFIITNKHLFRRNNGTLVVQSLHGVFKVKDTTTLQQHLVDGRDMIIIRMPKDFPPFPQKLKFREPQREERICLVTTNFQTKSMSSMVSDTSCTFPSGDGIFWKHWIQTKDGQCGSPLVSTRDGFIVGIHSASNFTNTNNYFTSVPKNFMELLTNQEAQQWVSGWRLNADSVLWGGHKVFMVKPEEPFQPVKEATQL

Variants of: B1
Experiment: raw area under fraction-flipped curve 0-4 h after induction (AUC4h, not background-subtracted), DNA-recorder readout of cleavage of the substrate (dimensionless); higher = more cleavage of the substrate by the protease variant
Settings: temperature: 34 °C; time window: 0-4 h after rhamnose induction
Procedure: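 In vivo DNA recorder in E. coli TOP10(DE3) ΔrhaA at 34 °C. Each TEVp single-site mutant (parent TEVp 0) is paired with a single-site variant of the 7-mer TEVs (canonical ENLYFQ|S). The substrate sits between flexible linkers in a Bxb1-sfGFP-TEVs-SsrA fusion, so cleavage stabilises Bxb1 and speeds flipping of a recombination array, read by NGS. The value is the raw area under the fraction-flipped curve over 0-4 h after rhamnose induction (AUC4h), with ≥20 reads per time point. It is not background-subtracted; inactive controls average about 0.047.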
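Also: Bxb1 expression induced with 0.2% (w/v) L-rhamnose at OD600 near 0.5, cultures sampled hourly, flipped fraction per protease–substrate barcode pair counted by paired-end Illumina sequencing.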

Row | Variant | area with substrate ENLYFQA | area with substrate ENLYFQC | area with substrate ENLYFQD | area with substrate ENLYFQF | area with substrate ENLYFQG | area with substrate ENLYFQH | area with substrate ENLYFQI | area with substrate ENLYFQL | area with substrate ENLYFQM | area with substrate ENLYFQN | area with substrate ENLYFQR | area with substrate ENLYFQS | area with substrate ENLYFQT | area with substrate ENLYFQW | area with substrate ENLYFQY | area with substrate ENLYFQP | area with substrate ENLYFQE | area with substrate ENLYFQK | area with substrate ENLYFQQ | area with substrate ENLYFQV
1 | D149G | 0.0829 | 0.0903 | 0.0553 | 0.0782 | 0.101 | 0.0782 | 0.0624 | 0.0482 | 0.0774 | 0.0605 | 0.0518 | 0.0971 | 0.0631 | 0.0606 | 0.0653 | – | – | – | – | –
2 | D149R | 0.0819 | 0.101 | – | – | – | – | 0.0584 | – | 0.074 | – | – | 0.0795 | 0.0731 | 0.0512 | – | 0.0406 | – | – | – | –
3 | G150C | 0.0688 | 0.0642 | – | 0.0653 | 0.057 | 0.0783 | 0.0569 | 0.0597 | 0.0422 | 0.0581 | 0.0584 | 0.0611 | 0.0627 | 0.0591 | 0.0676 | 0.0661 | 0.0573 | 0.0586 | 0.0516 | 0.0736
4 | G150T | 0.0628 | 0.0575 | 0.0554 | 0.0576 | 0.0598 | 0.0599 | 0.0602 | 0.061 | 0.0686 | 0.0582 | 0.0583 | 0.0605 | 0.0587 | 0.0486 | 0.0579 | 0.0548 | – | 0.0524 | 0.0694 | –
5 | C152Q | 0.0563 | – | – | – | – | – | 0.0543 | – | 0.0622 | – | – | 0.063 | – | – | – | – | – | – | – | 0.0529
6 | C152Y | 0.0666 | 0.0464 | – | – | – | – | – | 0.0639 | 0.0639 | 0.0377 | 0.0603 | 0.061 | – | – | 0.0534 | – | – | – | – | –
7 | P155Q | 0.061 | 0.045 | 0.051 | 0.0488 | 0.0803 | 0.0357 | 0.0477 | 0.0517 | 0.0617 | 0.0487 | 0.0527 | 0.0533 | 0.0479 | 0.0338 | 0.0558 | 0.054 | – | 0.0457 | – | 0.056
8 | V157G | 0.0549 | 0.0438 | – | – | 0.0455 | 0.0407 | – | 0.052 | 0.0451 | 0.0474 | 0.0497 | 0.0538 | 0.0658 | – | – | – | 0.0585 | – | – | 0.0337
9 | R160E | 0.101 | 0.125 | 0.0737 | – | – | – | 0.0555 | – | 0.0799 | 0.0913 | 0.0667 | 0.103 | 0.0714 | 0.0635 | 0.128 | – | – | 0.0629 | – | –
10 | R160F | 0.141 | – | 0.103 | 0.0823 | 0.0993 | 0.0921 | 0.0637 | – | 0.102 | 0.0748 | – | 0.115 | 0.0644 | – | 0.122 | 0.0531 | 0.0713 | 0.0719 | 0.075 | 0.0705
11 | R160G | 0.121 | 0.179 | 0.0549 | – | 0.124 | 0.0838 | 0.0541 | 0.0591 | – | 0.0769 | 0.0573 | 0.112 | – | 0.0644 | 0.0736 | 0.0649 | – | 0.0465 | 0.0618 | 0.0602
12 | R160Q | 0.0787 | 0.112 | 0.0791 | 0.0754 | 0.0858 | 0.0554 | 0.0565 | 0.0627 | 0.101 | 0.0748 | – | 0.103 | – | – | 0.0824 | 0.0573 | – | 0.0586 | – | 0.0683
13 | V165C | 0.0848 | 0.0737 | – | – | 0.101 | – | 0.0551 | 0.0615 | – | 0.0558 | 0.0563 | 0.0928 | – | – | – | – | 0.06 | 0.0607 | – | 0.0669
